# Laboratory results as given in publication PMC4336329 (PLoS ONE, 2015).
# Among all 310,000 compounds or so, about 14,000 (4.5%) showed an effect of 50% or more. Effects have a minus sign here. The list shows a part of the results.
# Biological target: human ether-à-go-go-related gene (hERG) potassium channel (human, UniProt Q12809)
# Experiment: primary screen, population patch clamp on CHO cells stably expressing hERG
# 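Also: peak tail current of the secondary pulse compared with the same well before compound.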
# human ether-à-go-go-related gene (hERG) potassium channel, sequence (Q12809 whole entry, looked up): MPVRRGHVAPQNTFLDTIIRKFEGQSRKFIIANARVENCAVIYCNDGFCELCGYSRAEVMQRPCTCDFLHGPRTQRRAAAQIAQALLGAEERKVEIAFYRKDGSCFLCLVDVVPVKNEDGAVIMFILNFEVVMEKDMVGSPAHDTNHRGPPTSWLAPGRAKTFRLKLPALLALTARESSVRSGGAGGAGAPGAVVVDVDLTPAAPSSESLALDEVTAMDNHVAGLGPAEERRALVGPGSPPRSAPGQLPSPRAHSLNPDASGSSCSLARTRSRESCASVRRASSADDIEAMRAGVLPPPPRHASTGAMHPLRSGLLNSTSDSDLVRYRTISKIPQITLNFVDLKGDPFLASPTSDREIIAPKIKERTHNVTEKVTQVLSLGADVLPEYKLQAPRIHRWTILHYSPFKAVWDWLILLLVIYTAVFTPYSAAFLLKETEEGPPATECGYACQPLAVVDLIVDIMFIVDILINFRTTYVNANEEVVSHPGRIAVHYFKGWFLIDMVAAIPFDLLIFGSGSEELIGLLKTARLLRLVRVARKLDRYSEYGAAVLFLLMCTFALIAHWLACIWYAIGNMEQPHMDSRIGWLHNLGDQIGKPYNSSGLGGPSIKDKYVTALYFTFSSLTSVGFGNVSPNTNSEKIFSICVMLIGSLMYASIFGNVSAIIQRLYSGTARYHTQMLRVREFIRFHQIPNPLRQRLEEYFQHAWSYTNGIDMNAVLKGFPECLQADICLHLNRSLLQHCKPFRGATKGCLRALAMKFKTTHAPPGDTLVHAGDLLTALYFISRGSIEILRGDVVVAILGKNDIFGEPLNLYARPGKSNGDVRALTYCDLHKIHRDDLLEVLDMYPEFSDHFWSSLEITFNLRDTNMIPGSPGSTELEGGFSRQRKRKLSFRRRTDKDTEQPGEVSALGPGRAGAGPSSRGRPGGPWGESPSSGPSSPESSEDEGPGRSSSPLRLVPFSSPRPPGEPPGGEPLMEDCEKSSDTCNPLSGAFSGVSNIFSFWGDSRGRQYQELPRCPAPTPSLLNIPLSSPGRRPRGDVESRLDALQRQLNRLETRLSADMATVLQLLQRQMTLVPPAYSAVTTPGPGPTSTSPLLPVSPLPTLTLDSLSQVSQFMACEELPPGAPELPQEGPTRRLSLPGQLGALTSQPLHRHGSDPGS
row,Structure (SMILES),"hERG current change (%, negative = inhibition) at 10uM"
1,O=C(Cc1ncc(C(F)(F)F)cc1Cl)N1CCN(c2ccc(F)cc2)CC1,-41.3%
2,CC(NCc1ccc(S(N)(=O)=O)cc1)C(=O)Nc1cccc(Cl)c1 (stereo not shown),-8.15%
3,CCOc1ccc(N(CC(=O)NCc2ccccc2)S(C)(=O)=O)cc1,-10.9%
4,Cc1ccc2c(c1)N(CC(=O)NC1CCCc3ccccc31)C(=O)CO2 (stereo not shown),-4.94%
5,CCOC(=O)C1=C(O)C(=O)NC(c2ccccc2)=C(OCC)C1,0.866%
6,COc1ccc(Oc2ncccc2NC(=O)c2cccc(C)c2C)cc1,-2.24%
7,Cc1ccc2oc(=O)c3cnn(CC(=O)NC4CCN(Cc5ccccc5)CC4)c3c2c1,-43.8%
8,CCCCC(=O)N1CCCC(C)C1 (stereo not shown),25.8%
9,CCC1Oc2ccccc2N(CC(=O)NCCN2C(C)CCCC2C)C1=O (stereo not shown),-6.89%
10,O=C(NCCC1CCCCN1S(=O)(=O)c1ccccc1)C(=O)NC1CCCC1 (stereo not shown),-42.6%
11,CC[C@@H](C)C(NC(=O)OC(C)(C)C)c1cn([C@@H](Cc2ccc(O)cc2)C(=O)N2CCN(C(=O)OC(C)(C)C)CC2)nn1 (stereo partly shown),-70%
12,COc1ccccc1CNC(=O)c1cc2c(s1)CS(=O)(=O)C2,10.3%
13,O=C(N/N=C/c1ccco1)C1(O)c2ccccc2-c2ccccc21,10.6%
14,O=C(Cc1ccccc1)N1CCC(c2ccccc2)C1 (stereo not shown),4.65%
15,COCCC(=O)N1CCC(Oc2ccc(C(=O)NCCn3cccn3)cc2)CC1,3.04%
16,CC1=CCC(C(=O)O)(C(=O)N/N=C/c2cccs2)C(c2ccc([N+](=O)[O-])cc2)C1 (stereo not shown),-13.2%
17,Cc1cc(=O)[nH]c(Nc2cccc(Br)c2)n1,12.4%
18,CN(c1ccccc1C(=O)Nc1ccc(CC#N)cc1)S(=O)(=O)c1ccccc1,-1.83%
19,COc1ccc(S(=O)(=O)N2CCC(C(=O)NCCc3ccc4c(c3)OCO4)CC2)cc1,-43.2%
20,O=C(N/N=C/C(Br)=C/c1ccccc1)c1cccnc1,-31.3%
21,Cc1cc(NC(=O)CSc2nnc(-c3c[nH]c4ccccc34)n2-c2ccc(F)cc2)no1,14.2%
22,O=C(Nc1cc(Cl)ccc1Cl)c1cc(-c2ccco2)on1,8.47%

row,Structure (SMILES),"hERG current change (%, negative = inhibition) at 10uM"
1,CCC(CO)[n+]1c(C)cc(/C=C2\Sc3ccccc3N2Cc2ccccc2)cc1C.[Br-] (stereo not shown),-75.6%
2,COc1ccc(-c2nc3cc(C)ccn3c2NC(=O)c2c(F)cccc2Cl)cc1,9.01%
3,CCN1CCN(C(CNS(=O)(=O)c2ccc(Cl)cc2)c2cccnc2)CC1 (stereo not shown),-74.2%
4,O=C(Cc1ncc(C(F)(F)F)cc1Cl)NCc1ccco1,-0.471%
5,CCC(CC)c1nnc(NC(=O)c2cc(C(=O)OC)cc([N+](=O)[O-])c2)s1,7.7%
6,COc1cc(NC(=O)c2ccc(OC)c([N+](=O)[O-])c2)ccc1NC(=O)c1ccco1,-3%
7,COc1cc(C(=O)Oc2ccccc2/C=N/NC(=O)c2ccc(Cl)cc2Cl)cc(OC)c1OC,0.683%
8,Cl.Fc1ccc(Nc2nc(NCc3ccco3)c3ccccc3n2)cc1,-37.2%
9,O=C(Nc1ccc(N2CCOCC2)c(Cl)c1)c1cccc(-n2cnnc2)c1,14.7%
10,S=C(NCC1CCCO1)Nc1cccc(Cl)c1 (stereo not shown),14%
11,COc1ccc(Cl)cc1N/C(N)=N/c1nc(CSc2ccc(C)cc2)cc(=O)[nH]1,-1.9%
12,C=CC(=O)NC1CC2CCC1(C)C2(C)C (stereo not shown),7.01%
13,Cc1cc(C)cc(C(=O)NCCN2CCOCC2)c1,10.6%
14,Cc1c(NC(=O)C2CCCN(S(=O)(=O)c3cnc[nH]3)C2)c(=O)n(-c2ccccc2)n1C (stereo not shown),20.3%
15,CC(C)c1ccc(NC(=O)Cn2ncc3ccccc32)cc1,11.7%
16,Cc1cccc(C(=O)NC(C)C(c2cccs2)N2CCOCC2)c1 (stereo not shown),5.25%
17,COCCN1C(=O)C(=O)/C(=C(/O)c2ccc(OC(C)C)cc2)C1c1cccnc1 (stereo not shown),7.45%
18,O=C(CCCc1nc2ccccc2s1)NCc1ccccc1,-8.92%
19,O=C(CNC(=O)c1ccccc1F)N/N=C/c1cc(Br)ccc1OCc1ccccc1,-3.96%
20,Cc1cc(NC(=O)c2ccc(Br)cc2)nc(C)n1,1%
21,COCc1nc2ccccc2n1CCCOc1ccccc1,-23%
